Results on 31 sequences are retold here after publication PMC12820563, “FoxP3 forms a head-to-head dimer in vivo and stabilizes its multimerization on adjacent microsatellites”.

The list shows a part of the results.

For this experiment, the target named is T1, MBP-FoxP1dN (Mus musculus, UniProt P58462 326-579).
T1 sequence: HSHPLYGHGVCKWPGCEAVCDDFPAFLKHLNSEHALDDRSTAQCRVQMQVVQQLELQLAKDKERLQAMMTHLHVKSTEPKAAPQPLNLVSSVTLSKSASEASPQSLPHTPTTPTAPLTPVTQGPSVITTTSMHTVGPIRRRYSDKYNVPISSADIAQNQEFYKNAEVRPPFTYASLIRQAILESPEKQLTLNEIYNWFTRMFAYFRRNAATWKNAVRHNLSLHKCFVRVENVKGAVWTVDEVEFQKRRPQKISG
Description: PD-seq (MBP pull-down with sequencing); 20 mM Tris-HCl pH 7.5, 100 mM NaCl, 1.5 mM MgCl2, 0.4 uM protein, 0.1 uM dsDNA library, 30 min, room temperature, amylose pull-down; high values mean tight binding. To be noted: protein: recombinant; tags: His6-MBP; chain copies: 2; dsDNA, one strand shown. The essentials: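 The N-terminus-lacking fragment of mouse FoxP3 or FoxP1 carried a His6-MBP tag and was expressed in E. coli. At 0.4 µM it was incubated with 0.1 µM Klenow-filled degenerate double-stranded DNA library for 30 min at room temperature in Tris pH 7.5 buffer with NaCl and MgCl2, and complexes were caught on amylose resin, washed three times, released with proteinase K, PCR-barcoded and Illumina-sequenced. Binding is reads-per-million enrichment of pull-down over input with replicates pooled.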
In the case of “GATGATTGTTCTCCCAGCTGATGAATTACGCCATTCGAGTAAACAAATTTTCCTAATCTTTCTGTTCAAGCGCCATCTAC”, the binding signal is 1.04 RPM ratio (pull-down/input).

In the case of “GATGATTGTTCTCCCAGCTGATGAATTTTCTGCCTCGAGTAAACAAATTTTCCTAATCTTTCTGTTCAAGCGCCATCTAC”, the binding signal was 0.924 RPM ratio (pull-down/input). For the sequence “GATGATTGTTCTCCCAGCTGATGAATTTTTTAATTCGAGTAAACAAATTTTCCTAATCTTTCTGTTCAAGCGCCATCTAC”, the binding signal was 1.05 RPM ratio (pull-down/input). As for “GATGATTGTTCTCCCAGCTGATGAATTAGACTCCTCGAGTAAACAAATTTTCCTAATCTTTCTGTTCAAGCGCCATCTAC”, the binding signal was 0.814 RPM ratio (pull-down/input). Under “GATGATTGTTCTCCCAGCTGATGAATTCCTAGCATCGAGTAAACAAATTTTCCTAATCTTTCTGTTCAAGCGCCATCTAC” stands 0.919 RPM ratio (pull-down/input). For the sequence “GATGATTGTTCTCCCAGCTGATGAATTATTACTCTCGAGTAAACAAATTTTCCTAATCTTTCTGTTCAAGCGCCATCTAC”, the binding signal is 1 RPM ratio (pull-down/input). For “GATGATTGTTCTCCCAGCTGATGAATTCGACCCGTCGAGTAAACAAATTTTCCTAATCTTTCTGTTCAAGCGCCATCTAC”, the binding signal is 0.743 RPM ratio (pull-down/input). Under “GATGATTGTTCTCCCAGCTGATGAATTCTGAACCTCGAGTAAACAAATTTTCCTAATCTTTCTGTTCAAGCGCCATCTAC” stands 0.722 RPM ratio (pull-down/input); under “GATGATTGTTCTCCCAGCTGATGAATTAAGAACCTCGAGTAAACAAATTTTCCTAATCTTTCTGTTCAAGCGCCATCTAC”, 0.767 RPM ratio (pull-down/input).

“GATGATTGTTCTCCCAGCTGATGAATTGCCGGTCTCGAGTAAACAAATTTTCCTAATCTTTCTGTTCAAGCGCCATCTAC”: the binding signal is 0.824 RPM ratio (pull-down/input). For “GATGATTGTTCTCCCAGCTGATGAATTCTGTTATTCGAGTAAACAAATTTTCCTAATCTTTCTGTTCAAGCGCCATCTAC”, the binding signal was 1.78 RPM ratio (pull-down/input). Regarding “GATGATTGTTCTCCCAGCTGATGAATTAGGTGTCTCGAGTAAACAAATTTTCCTAATCTTTCTGTTCAAGCGCCATCTAC”, the binding signal is 0.877 RPM ratio (pull-down/input). As for “GATGATTGTTCTCCCAGCTGATGAATTTCAAACTTCGAGTAAACAAATTTTCCTAATCTTTCTGTTCAAGCGCCATCTAC”, the binding signal is 0.896 RPM ratio (pull-down/input). Consider “GATGATTGTTCTCCCAGCTGATGAATTATTGTTGTCGAGTAAACAAATTTTCCTAATCTTTCTGTTCAAGCGCCATCTAC”, for which the binding signal is 3.22 RPM ratio (pull-down/input). On to “GATGATTGTTCTCCCAGCTGATGAATTCACCCGCTCGAGTAAACAAATTTTCCTAATCTTTCTGTTCAAGCGCCATCTAC”, for which the binding signal is 0.851 RPM ratio (pull-down/input).

As for “GATGATTGTTCTCCCAGCTGATGAATTGAGAAGTTCGAGTAAACAAATTTTCCTAATCTTTCTGTTCAAGCGCCATCTAC”, the binding signal was 0.799 RPM ratio (pull-down/input).

Consider “GATGATTGTTCTCCCAGCTGATGAATTTCTATGTTCGAGTAAACAAATTTTCCTAATCTTTCTGTTCAAGCGCCATCTAC”, for which the binding signal is 1.05 RPM ratio (pull-down/input).

As for “GATGATTGTTCTCCCAGCTGATGAATTCATAGTCTCGAGTAAACAAATTTTCCTAATCTTTCTGTTCAAGCGCCATCTAC”, the binding signal was 0.82 RPM ratio (pull-down/input). On to “GATGATTGTTCTCCCAGCTGATGAATTGCCTGGTTCGAGTAAACAAATTTTCCTAATCTTTCTGTTCAAGCGCCATCTAC”, for which the binding signal was 0.956 RPM ratio (pull-down/input). As to “GATGATTGTTCTCCCAGCTGATGAATTTGAGTCATCGAGTAAACAAATTTTCCTAATCTTTCTGTTCAAGCGCCATCTAC”, the binding signal is 0.999 RPM ratio (pull-down/input). Take “GATGATTGTTCTCCCAGCTGATGAATTGAATAACTCGAGTAAACAAATTTTCCTAATCTTTCTGTTCAAGCGCCATCTAC”: the binding signal was 0.899 RPM ratio (pull-down/input). Under “GATGATTGTTCTCCCAGCTGATGAATTATACAGCTCGAGTAAACAAATTTTCCTAATCTTTCTGTTCAAGCGCCATCTAC” stands 1.03 RPM ratio (pull-down/input). As to “GATGATTGTTCTCCCAGCTGATGAATTAAGGTGCTCGAGTAAACAAATTTTCCTAATCTTTCTGTTCAAGCGCCATCTAC”, the binding signal was 0.849 RPM ratio (pull-down/input). In the case of “GATGATTGTTCTCCCAGCTGATGAATTTTAAGATTCGAGTAAACAAATTTTCCTAATCTTTCTGTTCAAGCGCCATCTAC”, the binding signal is 0.874 RPM ratio (pull-down/input). Regarding “GATGATTGTTCTCCCAGCTGATGAATTCGTGTTATCGAGTAAACAAATTTTCCTAATCTTTCTGTTCAAGCGCCATCTAC”, the binding signal was 1.64 RPM ratio (pull-down/input).

As for “GATGATTGTTCTCCCAGCTGATGAATTACTAATCTCGAGTAAACAAATTTTCCTAATCTTTCTGTTCAAGCGCCATCTAC”, the binding signal was 1.17 RPM ratio (pull-down/input).

Consider “GATGATTGTTCTCCCAGCTGATGAATTTGGCGCCTCGAGTAAACAAATTTTCCTAATCTTTCTGTTCAAGCGCCATCTAC”, for which the binding signal is 0.916 RPM ratio (pull-down/input).

Consider “GATGATTGTTCTCCCAGCTGATGAATTGCTAGACTCGAGTAAACAAATTTTCCTAATCTTTCTGTTCAAGCGCCATCTAC”, for which the binding signal was 0.967 RPM ratio (pull-down/input).

As for “GATGATTGTTCTCCCAGCTGATGAATTATGACTATCGAGTAAACAAATTTTCCTAATCTTTCTGTTCAAGCGCCATCTAC”, the binding signal was 1.07 RPM ratio (pull-down/input).

Consider “GATGATTGTTCTCCCAGCTGATGAATTAACGCTTTCGAGTAAACAAATTTTCCTAATCTTTCTGTTCAAGCGCCATCTAC”, for which the binding signal was 1.04 RPM ratio (pull-down/input). Under “GATGATTGTTCTCCCAGCTGATGAATTTGAGTTCTCGAGTAAACAAATTTTCCTAATCTTTCTGTTCAAGCGCCATCTAC” stands 0.776 RPM ratio (pull-down/input).
